Assay results taken from PubChem BioAssay AID2100 (National Center for Advancing Translational Sciences (NCATS), 2009).
Out of some 300,000 compounds screened, about 1,200 (0.4%) were called active. The inconclusive results got no clear call from the source; some entries with a clear call stand among them for comparison. The call rests on the fitted dose curve; in most records, active means well fitted inhibition curve with a large enough effect; inconclusive means small, poorly fitted or top-dose-only effect, or another doubt; inactive means no such curve, though single readings can be large or run the other way. Potencies of inconclusive entries are doubtful fits and often do not repeat.

target: Lysosomal alpha-glucosidase (Homo sapiens) (UniProt P10253); test: qHTS Assay for Inhibitors and Activators of Human alpha-Glucosidase Cleavage of Glycogen; conditions: recombinant GAA, glycogen substrate, Amplex Red glucose oxidase fluorescence; activity change, negative = inhibition: at 76.4 µM (top of the series) unless noted;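 on activity change, negative = inhibition: 0% = full enzyme reaction and -100% = no-enzyme basal signal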
How it was run: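 Recombinant human alpha-glucosidase (4 nM final) hydrolysed bovine liver glycogen (30 ug) for 40 min at 37 C in pH 5.0 citrate/phosphate with 0.01% Tween-20. Released glucose detected by glucose oxidase/Amplex Red, Ex 573/Em 610 nm. Compounds up to 77 uM; AC50 from Hill fits.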
Potency means the concentration at half of the fitted maximal effect.

| SMILES | Potency | activity change, negative = inhibition |
| --- | --- | --- |
| CCc1ccc(OCc2n[nH]c(=S)n2C(C)CCCC(C)C)cc1 (configuration not stated) | inconclusive: 22.2 µM [inhibitor, partial curve] | – |
| Cc1nnc(N/N=C/c2ccco2)n1N | inconclusive: 2 µM [inhibitor, full curve] | – |
| CCCOc1cccc(C(=O)Nc2cccc(NC(=O)c3ccc(C(C)(C)C)cc3)c2)c1 | inactive | – |
| CCC1c2ccc(C)n2CCN1C(=O)Nc1ccc(F)cc1 (configuration not stated) | inconclusive: 19.8 µM [activator, single point] | – |
| COc1cc(/C=C/c2[nH]c(=O)[nH]c(=O)c2[N+](=O)[O-])cc(OC)c1O | inconclusive: 31.6 µM [inhibitor, single point] | – |
| CC1=NN(C(=O)CSCc2ccccc2)C(O)(c2ccc(F)cc2)C1 (configuration not stated) | inconclusive: 50.1 µM [inhibitor, single point] | – |
| COc1cc(/C=N/N=C2/NC(=O)C(c3ccccc3)S2)ccc1O (configuration not stated) | inconclusive: 25.1 µM [inhibitor, partial curve] | – |
| O=C1CSC(=S)N1c1ccc(F)cc1 | inconclusive: 39.5 µM [inhibitor, single point] | – |
| COc1ccc2c(c1)-c1nc(/N=C/c3c(O)ccc4ccccc34)sc1CC2 | inconclusive: 35.5 µM [inhibitor, partial curve] | – |
| Cc1ccc2c(N)c(C)ccc2c1 | inconclusive: 14 µM [inhibitor, partial curve] | – |
| O=[N+]([O-])c1ccc(/C=N/NC2=NS(=O)(=O)c3ccccc32)cc1 | inconclusive: 9.92 µM [inhibitor, full curve, poor fit] | – |
| Cc1ccc(S(=O)(=O)NCC(c2cccnc2)N2CCc3ccccc32)cc1 (configuration not stated) | inconclusive: 31.6 µM [inhibitor, single point] | – |
| O=C(CSCc1ccccc1Cl)NN=C1CCCCCC1 | inactive | – |
| CC(C)(C)NC(=O)NC(=O)CN1CCN(c2ccc(O)cc2)CC1 | inconclusive: 11.2 µM [inhibitor, full curve] | – |
| CCN1CCN(c2cc(C)c3cc(NC(=S)N4CCOCC4)ccc3n2)CC1 | inconclusive: 28.2 µM [inhibitor, partial curve] | – |
| Cc1nc2c3ccccc3nc(NNC(=O)CCC(=O)NCCC(C)C)n2n1 | inconclusive: 28.2 µM [inhibitor, partial curve] | – |
| Cc1ccccc1Cn1c(=O)n(Cc2ccc(Cl)cc2)c(=O)c2cccnc21 | inactive | – |
| CCOC(=O)c1c(NC(=O)c2nc(SC(C)C)ncc2Cl)sc2c1CCCC2 | inactive | – |
| COc1cc(/C=C/C(=O)OCC(=O)NC(=O)NC(C)(C)C)ccc1O | inconclusive: 35.5 µM [inhibitor, partial curve] | – |
| CN(C)c1ccc(Nc2nc(-c3cccnc3)cs2)cc1 | inconclusive: 35.5 µM [inhibitor, single point] | – |
| O=C1c2ccccc2C(=O)N1OCc1ccc(Cl)cc1 | inactive | – |

| SMILES | Potency | activity change, negative = inhibition |
| --- | --- | --- |
| O=C(NNc1c(Cl)cc(Cl)cc1Cl)c1cccc([N+](=O)[O-])c1 | inconclusive: 25.1 µM [inhibitor, single point] | – |
| CCOc1ccc(/C=N/NC(=O)c2cc3c(OC)cc(OC)c(OC)c3[nH]2)cc1 | inconclusive: 28.2 µM [inhibitor, partial curve] | – |
| Cc1c(Cl)cccc1N1C(=O)CC(NNC(=O)c2cccs2)C1=O (configuration not stated) | inconclusive: 50.1 µM [inhibitor, single point] | – |
| COC(=O)c1cccc(-n2c(CCC(=O)O)ccc2-c2ccc(OC)cc2)c1 | inactive | – |
| CCCn1c(N)[n+](CC(=O)c2ccco2)c2ccccc21 | inactive | – |
| C=CCCC(=O)Nc1nc(C)c(-c2csc(Nc3ccccc3OC)n2)s1 | inconclusive: 28 µM [inhibitor, single point] | – |
| Cc1nn(-c2ccccc2)c(OC(=O)C(C)C)c1Sc1ccccc1 | inconclusive: 39.8 µM [inhibitor, partial curve] | – |
| COc1ccc(/C(C)=N/Nc2cccc(C(=O)O)c2)cc1OC | inconclusive: 15.7 µM [inhibitor, partial curve] | – |
| COC(=O)C1=C(Nc2ccccc2NS(=O)(=O)c2ccc(C(F)(F)F)cc2Cl)CSC1 | inconclusive: 25.1 µM [inhibitor, partial curve] | – |
| Cc1cccc(C)c1NC(=O)C1c2cccc[n+]2CC(=O)N1Cc1cccs1 (configuration not stated) | inconclusive: 35.5 µM [inhibitor, single point] | – |
| CCOC(=O)CNC(=O)C1CCCN(c2ncccn2)C1 (configuration not stated) | inconclusive: 7.03 µM [inhibitor, single point] | – |
| CCOC(=O)c1[nH]c2ccccc2c1N=C(C)N(CC)CC | inconclusive: 17.8 µM [inhibitor, partial curve] | – |
| Clc1ccc(-c2nc3ncccn3c2Nc2ccc3c(c2)OCO3)cc1 | inconclusive: 11.2 µM [inhibitor, partial curve] | – |
| CCOc1cc(NC(=S)Nc2cccc(OC)c2)c(OCC)cc1NC(=O)C1CC1 | inconclusive: 44.7 µM [inhibitor, partial curve, poor fit] | – |
| Cc1ccc(-n2c(O)c(/C=N/Nc3ccc(S(=O)(=O)N4CCOCC4)cc3[N+](=O)[O-])c3ccccc3c2=O)c(C)c1 | inconclusive: 12.6 µM [inhibitor, partial curve] | – |
| CCOCCCNc1nc2c([nH]1)c(=O)n(C)c(=O)n2C | inconclusive: 9.92 µM [inhibitor, partial curve] | – |
| Cn1c(-c2sccc2OCc2cccc(C(F)(F)F)c2)n[nH]c1=S | inconclusive: 28.2 µM [inhibitor, partial curve] | – |
| CCOC(=O)C1=NN(c2cccc(C)c2)C2(S1)SC(C(C)=O)=C(C)N2c1ccccc1 (configuration not stated) | – | inconclusive: 32% [activator] |
| CCOC(=O)c1c(N)sc2c1C1CCN2CC1 | inconclusive: 31.6 µM [inhibitor, single point] | – |
| O=C(Nc1ccc2nc(-c3ccco3)c(-c3ccco3)nc2c1)N1CCN(c2ccccn2)CC1 | inactive | – |
| CCOC(=O)C1=C(C)NC2=C(C(=O)CC(C)(C)C2)C1c1ccc2c(c1)CCCN2C (configuration not stated) | inconclusive: 35.5 µM [inhibitor, partial curve] | – |
